In the supplement of paper PMC4604168 (melanoma cell lines):
This is one part of the list. Repeats are few or missing, and single values can be far off.

system: A2058; experiment: cell count relative to DMSO control; melanoma cells; higher = more viable cells; details: library dose: standard library concentration; 72 h
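Note: cells treated in 1,536-well plates, then fixed and DAPI-stained, with nuclei counted from automated high-throughput microscope images.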

SMILES | cell count
CS(=O)(=O)CCNCc1ccc(-c2ccc3ncnc(Nc4ccc(OCc5cccc(F)c5)c(Cl)c4)c3c2)o1 [lapatinib] + Nc1ccn([C@@H]2O[C@H](CO)[C@@H](O)C2(F)F)c(=O)n1 [gemcitabine] (first compound 4 µM, partner dose 0.002 µM) | 53.1%
C=CCNC1=C2C[C@@H](C)C[C@H](OC)[C@H](O)[C@@H](C)/C=C(\C)[C@H](OC(N)=O)[C@@H](OC)/C=C\C=C(/C)C(=O)NC(=CC1=O)C2=O [Tanespimycin] + Cc1cc([N+](=O)[O-])ccc1NS(=O)(=O)c1cc(Cl)ccc1Cl [FH535] (first compound 0.01 µM, partner dose 5 µM) | 77.4%
CN1CCN(c2ccc3nc(-c4c(N)c5c(F)cccc5[nH]c4=O)[nH]c3c2)CC1 [Dovitinib] + CO[C@@H]1[C@H](N(C)C(=O)c2ccccc2)C[C@H]2O[C@]1(C)n1c3ccccc3c3c4c(c5c6ccccc6n2c5c31)C(=O)NC4 [Midostaurin] (first compound 0.5 µM, partner dose 0.4 µM) | 23.9%
CNC(=O)c1cc(Oc2ccc(NC(=O)Nc3ccc(Cl)c(C(F)(F)F)c3)cc2)ccn1 [sorafenib] + CC(C)CCN1c2nc(Nc3cc(F)c(O)c(F)c3)ncc2N(C)C(=O)C1C [BID1870] (first compound 2 µM, partner dose 1 µM) | 109%
C[C@@H](Oc1cc(-c2cnn(C3CCNCC3)c2)cnc1N)c1c(Cl)ccc(F)c1Cl [Crizotinib] + Cn1c(Nc2ccc(C(F)(F)F)cc2)nc2cc(Oc3ccnc(-c4ncc(C(F)(F)F)[nH]4)c3)ccc21 [CHIR265] (first compound 1 µM, partner dose 0.4 µM) | 72.9%
CS(=O)(=O)CCNCc1ccc(-c2ccc3ncnc(Nc4ccc(OCc5cccc(F)c5)c(Cl)c4)c3c2)o1 [lapatinib] + O=C(Nc1cccc(Cl)c1)Nc1ncc(CCNc2ncnc3ccsc23)s1 [SNS314] (first compound 4 µM, partner dose 0.004 µM) | 26.7%
CN1CCN(c2ccc3nc(-c4c(N)c5c(F)cccc5[nH]c4=O)[nH]c3c2)CC1 [Dovitinib] + CN(NC(=O)CC(=O)NN(C)C(=S)c1ccccc1)C(=S)c1ccccc1 [STA4783] (first compound 0.5 µM, partner dose 0.03 µM) | 7.55%
C=CCNC1=C2C[C@@H](C)C[C@H](OC)[C@H](O)[C@@H](C)/C=C(\C)[C@H](OC(N)=O)[C@@H](OC)/C=C\C=C(/C)C(=O)NC(=CC1=O)C2=O [Tanespimycin] + O=C(O)C(=O)Nc1sc2c(c1C(=O)O)CCNC2 [TCS401] (first compound 0.01 µM, partner dose 8.33333 µM) | 63.1%
C[C@@H](Oc1cc(-c2cnn(C3CCNCC3)c2)cnc1N)c1c(Cl)ccc(F)c1Cl [Crizotinib] + Cc1nc(Nc2ncc(C(=O)Nc3c(C)cccc3Cl)s2)cc(N2CCN(CCO)CC2)n1 [dasatanib] (first compound 1 µM, partner dose 0.02 µM) | 55.7%
